In all, about 4,100 sequences were measured (“arbitrary fluorescence units”: median about 780, highest 2% from about 22,000 on). The list shows a part of the results.

This experiment concerns the target T1, ETS1 (UniProt P14921).
T1 sequence: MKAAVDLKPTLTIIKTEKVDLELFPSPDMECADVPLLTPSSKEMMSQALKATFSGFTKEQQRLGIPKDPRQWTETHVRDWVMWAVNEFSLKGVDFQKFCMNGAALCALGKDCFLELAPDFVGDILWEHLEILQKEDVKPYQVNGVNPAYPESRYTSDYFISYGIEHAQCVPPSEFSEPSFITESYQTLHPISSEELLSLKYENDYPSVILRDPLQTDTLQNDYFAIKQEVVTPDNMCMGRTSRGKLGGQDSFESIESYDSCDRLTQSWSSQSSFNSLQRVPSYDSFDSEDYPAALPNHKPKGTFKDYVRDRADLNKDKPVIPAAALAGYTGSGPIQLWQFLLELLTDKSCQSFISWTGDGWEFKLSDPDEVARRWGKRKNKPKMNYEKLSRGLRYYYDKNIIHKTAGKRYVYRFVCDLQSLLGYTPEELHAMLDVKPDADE
Kind of experiment: ETS1 binding intensity (PBM fluorescence), ETS1 alone (arbitrary fluorescence units); higher = stronger binding. The following applies: ETS1 concentration 1 nM; RUNX1 concentration 0 nM. In short, it runs like this:
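Double-stranded Agilent 4 × 180k arrays held 36-bp genomic probes whose RUNX1 partner site was mutated, and these were incubated with 1 nM full-length recombinant human ETS1 in the absence of RUNX1 under standard PBM protocols. Bound protein was labelled with anti-ETS1 antibody (Cell Signaling Technology 14069) plus an Alexa488-conjugated secondary and read on a GenePix 4400A, with four spots printed per sequence. Binding level is reported as raw spot fluorescence intensity summarised over replicate spots.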
As for CCAAGGATATGCTTTTTTTTGGCAAGTCACATCCAA, the ETS1 binding intensity was found to be 471. For GGCTTTCCGTTCAAGGATCTTTTTGGGGTCTTTGTC, the ETS1 binding intensity was found to be 2700. For CGGCTAGGAAATAAAGAGCCTTCTCTCCGAGGTAGG, the ETS1 binding intensity worked out at 369. Consider GCACACCCCAAAGCCCTATTAAGACAGGAAGCCAGA, for which the ETS1 binding intensity was 685. In turn, TCCAGCGCCGCTGGGCCAACGAGAGCGCTTCCGGCC yielded an ETS1 binding intensity of 1740. Sequence GCAGGAAGACAAAGGGCATGGTTTGTCTGGTGCCCC yielded an ETS1 binding intensity of 341. For the sequence GAGCAGGAAGCACCCCCAGCACAGGCCTGAGGTGAG, the ETS1 binding intensity came out at 1330.

With GACAAGATTGCAGGTGGCAACCCCATCCGGTTTGTT, the ETS1 binding intensity amounted to 1400.

The sequence TGAAGGAAATTGACGAACACGTGACGCGCTCGGGCG showed an ETS1 binding intensity of 429. CCGGTCGCCGCTGTCCTCTGCGCGGGATGTGGCTCT registered an ETS1 binding intensity of 411. CCTCCTGTGATTAGTTCCTGCCCGATCAGGAAGGAG had an ETS1 binding intensity of 932.

With CTCGGCGAACCAGCGGGAGGCGGAACCATTGCACCG, the ETS1 binding intensity worked out at 369. Then CACTGCGGAAGCAGTGTAGAGAGGTAGTTATCAGTG, with 1360; and CCGGCAGGAAGTTAGCATGGGCGGACGACACGGGGG, with 6810; and TCAGTGCTGTCAGGGAGTCTGTACTTCCTGGATGGC, with 1170.

TAGATCTTCCTGGACGTGCCTCTCCCCTTCGGCCTG returned an ETS1 binding intensity of 904. The result for TGAGCCCTACTTCCGGTGGTGCTGTGCTCTGCCCCT reads 29700.

With AAACTCACACGGTCCTCCTTAAGGAGCTTCCGGGGC, the ETS1 binding intensity is 630. Consider TGCGCATCGTGCTCATCCGCAGCCGCTAAGTGGGGC, for which the ETS1 binding intensity is 406. The sequence GACCGTTTCGGGTTCCGCCTGAGCCCTCAGCACAGG displayed an ETS1 binding intensity of 554. With TAAGAGATTTCCTGTAAAGGTAGCCACCAGCAAAGA, the ETS1 binding intensity is 8830. Turning to GTGCCTCCCGAAAGTTCTGTCCCTTCCGTCCCTTCA, the ETS1 binding intensity was determined as 420. Consider GTCTTACTTCCTGTCCCCGCCCACCTCGACTGTCTT, for which the ETS1 binding intensity amounted to 22700. Then TGCCATGCCAGCGGCTACTTCCGCCTACCCAGCGGC, with 4230; and GCCACTATTTCCTGCCTTCTGGGGCTGAGAGTCCCA, with 15200; and TCTGGGCTGACTTCCTGGCTTCGTCCCAGAACTTCA, with 5930. GTGCTTCCTGCTCGCACTGACTCATCGCGCAGCTGA had an ETS1 binding intensity of 7710. As for CAAGCACATTACGGAAGAGGCTGACCCCAAATACGA, the ETS1 binding intensity was 428. GTTGAAATTGAGCTTCCGTTGGTGGATAACCCTCTG displayed an ETS1 binding intensity of 3150. AACCAAGCAGCCACTCGAAACTTCCGAGTACACCCT showed an ETS1 binding intensity of 472. As for GCTCAGGATGCTGTCTGTGCACTGTTAGGTGGCTTG, the ETS1 binding intensity is 370. As to ATGCTGGACGTGGCTGCATAGTATTTCCTAACGGAG, the ETS1 binding intensity came to 361. Then TTAGCCGTATGTGATTTAAAAACTTCCTGTCATTGA, with 2530. Then CGGGGCTTCCGGCGCGCTGCCTTGAGGGCACGGTAG, with 12400.

In turn, GCTGGTATGGCAGGAAGTTTCTCACCAGAGTATACT registered an ETS1 binding intensity of 1630.

These data come from the supplement of paper PMC10681739.
